{"sequences": {"note": "The chains behind the UniProt entries cited, without tags or fusion partners. Where a name states a change or a piece, a line headed by the entry shows the natural chain unless it says otherwise. Residues count along the entry.", "UniProt Q9HC29": "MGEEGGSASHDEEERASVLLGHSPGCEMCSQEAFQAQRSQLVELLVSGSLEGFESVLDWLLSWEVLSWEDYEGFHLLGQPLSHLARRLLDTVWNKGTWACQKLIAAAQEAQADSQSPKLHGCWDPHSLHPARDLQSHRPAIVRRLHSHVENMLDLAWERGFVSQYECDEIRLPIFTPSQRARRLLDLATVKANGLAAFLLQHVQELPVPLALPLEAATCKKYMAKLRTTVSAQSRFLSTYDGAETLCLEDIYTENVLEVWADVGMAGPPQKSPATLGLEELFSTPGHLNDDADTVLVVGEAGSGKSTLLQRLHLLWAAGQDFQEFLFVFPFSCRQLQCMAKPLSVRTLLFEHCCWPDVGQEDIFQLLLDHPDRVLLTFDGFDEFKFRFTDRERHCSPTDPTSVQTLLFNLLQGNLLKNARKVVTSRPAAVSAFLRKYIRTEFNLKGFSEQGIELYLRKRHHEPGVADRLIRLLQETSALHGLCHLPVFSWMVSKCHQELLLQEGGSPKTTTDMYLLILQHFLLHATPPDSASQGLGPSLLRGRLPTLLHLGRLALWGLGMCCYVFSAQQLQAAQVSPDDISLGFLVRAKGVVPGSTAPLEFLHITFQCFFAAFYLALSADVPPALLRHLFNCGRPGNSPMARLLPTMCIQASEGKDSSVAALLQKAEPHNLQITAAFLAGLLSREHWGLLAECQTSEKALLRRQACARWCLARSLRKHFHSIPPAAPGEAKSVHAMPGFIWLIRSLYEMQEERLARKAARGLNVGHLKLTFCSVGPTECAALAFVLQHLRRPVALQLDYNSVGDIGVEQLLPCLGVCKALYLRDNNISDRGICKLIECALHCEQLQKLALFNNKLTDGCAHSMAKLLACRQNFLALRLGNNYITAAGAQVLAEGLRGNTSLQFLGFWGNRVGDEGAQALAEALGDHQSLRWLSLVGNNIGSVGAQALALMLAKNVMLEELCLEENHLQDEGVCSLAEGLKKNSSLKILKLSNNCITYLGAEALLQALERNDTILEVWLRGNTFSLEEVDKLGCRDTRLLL", "FLAG-NOD2 CARD only construct extended to position 260": "residues 1-260 of Q9HC29", "FLAG-NOD2 CARD only construct extended to residue 240": "residues 1-240 of Q9HC29", "FLAG-NOD2 CARD only construct (residues 1–227)": "residues 1-227 of Q9HC29", "15N-labelled human NOD2 (28–218)": "residues 28-218 of Q9HC29", "His6-MBP-NOD2 tandem CARDs (residues 28-215)-FLAG": "residues 28-215 of Q9HC29", "FLAG-NOD2 274–1040": "residues 274-1040 of Q9HC29", "His6-MBP-RIP2 CARD (residues 432-534)-FLAG (O43353, residues 432-534)": "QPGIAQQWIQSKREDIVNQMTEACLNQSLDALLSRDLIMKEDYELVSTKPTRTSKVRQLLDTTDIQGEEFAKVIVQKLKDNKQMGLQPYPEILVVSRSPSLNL", "GB1-RIP2–CARD (human) (O43353, residues 432-524)": "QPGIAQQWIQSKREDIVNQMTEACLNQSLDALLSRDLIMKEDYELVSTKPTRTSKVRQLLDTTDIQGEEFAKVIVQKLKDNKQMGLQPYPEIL"}, "source": "paper PMC4158416", "molecules": {"B1": {"name": "Full length murine CARD9 with a C-terminal V5-His epitope tag (pEF6-mCARD9-V5) (protein, UniProt A2AIV8 1-536)", "chain": "MSDYENDDECWSTLESFRVKLISVIDPSRITPYLRQCKVLNPDDEEQVLSDPNLVIRKRKVGVLLDILQRTGHKGYVAFLESLELYYPQLYRKVTGKEPARVFSMIIDASGESGLTQLLMTEVMKLQKKVQDLTALLSSKDDFIKELRVKDSLLRKHQERVQRLKEECELSSAELKRCKDENYELAMCLAHLSEEKGAALMRNRDLQLEVDRLRHSLMKAEDDCKVERKHTLKLRHAMEQRPSQELLWELQQEKDLLQARVQELQVSVQEGKLDRNSPYIQVLEEDWRQALQEHQKQVSTIFSLRKDLRQAETLRARCTEEKEMFELQCLALRKDAKMYKDRIEAILLQMEEVSIERDQAMASREELHAQCTQSFQDKDKLRKLVRELGEKADELQLQLFQTESRLLAAEGRLKQQQLDMLILSSDLEDSSPRNSQELSLPQDLEEDAQLSDKGVLADRESPEQPFMALNKEHLSLTHGMGPSSSEPPEKERRRLKESFENYRRKRALRKMQNSWRQGEGDRGNTTGSDNTDTEGS"}, "B2": {"name": "His-CARD9 CARD (murine, N-terminally 6His tagged, pDEST-17) (domain or fragment, UniProt A2AIV8 6-100)", "chain": "NDDECWSTLESFRVKLISVIDPSRITPYLRQCKVLNPDDEEQVLSDPNLVIRKRKVGVLLDILQRTGHKGYVAFLESLELYYPQLYRKVTGKEPA"}}, "key": {"[1]": {"molecular_target": "T1, His6-MBP-CARD9 CARD (residues 6-100)-FLAG (murine) (UniProt A2AIV8)", "T1 sequence": "B2 chain", "assay": "pull-down; co-sonication pull-down: E. coli cultures with the overexpressed proteins resuspended and combined before sonication (100 mM NaCl, 25 mM sodium phosphate, 20 mM imidazole, 5 mM β-mercaptoethanol, 0.1 % Triton-X100); His-MBP fusion purified on amylose resin; co-purifying protein seen by Coomassie staining after SDS–PAGE"}, "[2]": {"molecular_target": "FLAG-NOD2 274–1040 (human) (UniProt Q9HC29)", "assay": "co-IP; HEK 293T co-transfected with FLAG-NOD2 construct and mCARD9-V5, lysed after 24 h in RIPA buffer; anti-FLAG on Protein G Dynabeads; blot with anti-V5"}, "[3]": {"molecular_target": "FLAG-NOD2 CARD only construct extended to position 260 (human) (UniProt Q9HC29)", "assay": "co-IP; HEK 293T co-transfected with FLAG-NOD2 construct and mCARD9-V5, lysed after 24 h in RIPA buffer; anti-FLAG on Protein G Dynabeads; blot with anti-V5"}, "[4]": {"molecular_target": "FLAG-NOD2 R702W (full-length, Crohn's Disease associated SNP) (human) (UniProt Q9HC29)", "assay": "co-IP; HEK 293T co-transfected with FLAG-NOD2 construct and mCARD9-V5, lysed after 24 h in RIPA buffer; anti-FLAG on Protein G Dynabeads; blot with anti-V5"}, "[5]": {"molecular_target": "FLAG-NOD2 CARD only construct extended to residue 240 (human) (UniProt Q9HC29)", "assay": "co-IP; HEK 293T co-transfected with FLAG-NOD2 construct and mCARD9-V5, lysed after 24 h in RIPA buffer; anti-FLAG on Protein G Dynabeads; blot with anti-V5"}, "[6]": {"molecular_target": "Full-length human NOD2 with an N-terminal FLAG tag (pCMV-FLAG-NOD2) (human) (UniProt Q9HC29)", "assay": "co-IP; HEK 293T co-transfected with FLAG-NOD2 construct and mCARD9-V5, lysed after 24 h in RIPA buffer; anti-FLAG on Protein G Dynabeads; blot with anti-V5"}, "[7]": {"molecular_target": "FLAG-NOD2 R334W (full-length, Blau Syndrome associated SNP) (human) (UniProt Q9HC29)", "assay": "co-IP; HEK 293T co-transfected with FLAG-NOD2 construct and mCARD9-V5, lysed after 24 h in RIPA buffer; anti-FLAG on Protein G Dynabeads; blot with anti-V5"}, "[8]": {"molecular_target": "FLAG-NOD2 CARD only construct (residues 1–227) (human) (UniProt Q9HC29)", "assay": "co-IP; HEK 293T co-transfected with FLAG-NOD2 construct and mCARD9-V5, lysed after 24 h in RIPA buffer; anti-FLAG on Protein G Dynabeads; blot with anti-V5"}, "[9]": {"molecular_target": "His6-MBP-RIP2 CARD (residues 432-534)-FLAG (human) (UniProt O43353)", "assay": "pull-down; co-sonication pull-down: E. coli cultures with the overexpressed proteins resuspended and combined before sonication (100 mM NaCl, 25 mM sodium phosphate, 20 mM imidazole, 5 mM β-mercaptoethanol, 0.1 % Triton-X100); His-MBP fusion purified on amylose resin; co-purifying protein seen by Coomassie staining after SDS–PAGE"}, "[10]": {"molecular_target": "T1, His6-MBP-CARD9 CARD (residues 6-100)-FLAG (murine)", "assay": "pull-down; co-sonication pull-down: E. coli cultures with the overexpressed proteins resuspended and combined before sonication (100 mM NaCl, 25 mM sodium phosphate, 20 mM imidazole, 5 mM β-mercaptoethanol, 0.1 % Triton-X100); His-MBP fusion purified on amylose resin; co-purifying protein seen by Coomassie staining after SDS–PAGE", "remark": "listed apart in the source"}, "[11]": {"molecular_target": "His6-MBP-NOD2 tandem CARDs (residues 28-215)-FLAG (human) (UniProt Q9HC29)", "assay": "pull-down; co-sonication pull-down: E. coli cultures with the overexpressed proteins resuspended and combined before sonication (100 mM NaCl, 25 mM sodium phosphate, 20 mM imidazole, 5 mM β-mercaptoethanol, 0.1 % Triton-X100); His-MBP fusion purified on amylose resin; co-purifying protein seen by Coomassie staining after SDS–PAGE"}, "[12]": {"molecular_target": "15N-labelled human NOD2 (28–218) (human) (UniProt Q9HC29)", "assay": "NMR titration; 2D 1H/15N HSQC of 15N-labelled NOD2 (28–218) without and with equimolar (1:1) unlabelled CARD9 CARD; 20 mM sodium phosphate pH 7.1, 100 mM NaCl, 5 mM DTT; 180 μM, 298 K, 600 MHz; both purified"}}, "note": "Read-outs that look alike come from different tables or passages of the source. No constants are given. Whether binding was seen depends on the method and setting. For part of these data: In cells and extracts the contact can be indirect. Some binding calls cover weakened binding; strength is not graded here. Tags and fused reporters may be left off the sequences shown."}
{"molecule": "GB1-RIP2–CARD (human) (from UniProt O43353 432-524) (domain or fragment)", "values": [{"measurement": "binding", "setting": "[1]", "value": "no binding"}]}
{"molecule": "B1", "values": [{"measurement": "binding", "setting": "[2]", "value": "binds"}, {"measurement": "binding", "setting": "[3]", "value": "binds"}, {"measurement": "binding", "setting": "[4]", "value": "binds"}, {"measurement": "binding", "setting": "[5]", "value": "no binding"}, {"measurement": "binding", "setting": "[6]", "value": "binds"}, {"measurement": "binding", "setting": "[7]", "value": "binds"}, {"measurement": "binding", "setting": "[8]", "value": "no binding"}]}
{"molecule": "B2", "values": [{"measurement": "binding", "setting": "[9]", "value": "no binding"}, {"measurement": "binding", "setting": "[10]", "value": "binds weakly"}, {"measurement": "binding", "setting": "[11]", "value": "no binding"}, {"measurement": "binding", "setting": "[12]", "value": "no binding (tested: 180 μM, 1:1 equivalents)"}]}
